Assay results as given in the supplement of paper PMC10126150.
Sequences with one replicate were seen in a single cluster, so their values are uncertain.

Tested on: ATP
Assay: switch fluorescence ratio, 500 uM ATP over buffer (Cy3 cluster intensity, sum of 5 cycles each) (fold (ratio)); higher = stronger signal-on switching upon ATP binding; sequences stand for … in TCGTCGGCAGCGTCAGATGTGTATAAGAGACAGTTTTTTTTTTTTTTTTTTTTTTTTT…TC
Details: aptamer strand: ATP DNA aptamer (quencher-CACCTGGGGGAGTATTGCGGAGGAAGG + anchor), 100 nM annealed; ATP concentration: 500 uM; one replicate
Method in brief: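 Clusters carrying Cy3-labelled switching strands on a modified Illumina MiSeq flow-cell were annealed to 100 nM quencher-labelled ATP aptamer and imaged in selection buffer. They were imaged again after 15 min with 500 uM ATP at 22 °C, over five buffer/ATP cycles with NaOH stripping and re-annealing in between. For each cluster, the fluorescence ratio is the summed Cy3 intensity of the target cycles divided by that of the buffer cycles, averaged per switch-domain sequence. Clusters outside 100-1000 RFU were left out.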
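Note: ATP exposure 15 min at 22 °C before imaging.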

Sequence | switch fluorescence ratio
GCATCCTTGA | 1
CGGGCAATCG | 1.28
GAAAGAACGA | 0.992
TACGTCAAGC | 1.39
TAGCAAAAG | 1.24
GCCTACTTAT | 1.02
TAGTTCAATT | 0.941
TCCATCTTCG | 0.981
ATATGTTGGG | 0.925
GAATGGCCGA | 0.936
TGCTATAGC | 1.01
TATAATCAGC | 0.961
CAATTGTTTC | 0.963
GATTGTAGAG | 0.998
CCACCATCC | 1.44
GTGCGTAAGT | 1.03
GTGAAACATT | 0.97
CCACTTCTTA | 0.967
CAAAGAGGGG | 0.999
CCCGTCAAAA | 1.32
CTGCATGTT | 1.03
CATTCGAGTG | 0.99
AACTTAAGGA | 1
ATGAACCCTT | 1
CGTTTTACA | 1.03
TAACGCTATG | 1.05

Sequence | switch fluorescence ratio
AGATACAGGA | 1.03
TCAGCGTGGT | 1.01
TAACTTGTAC | 1.16
CTTGTTTACC | 1.06
CTTCTGTAAG | 1.04
AAAGTAGTGG | 1.02
GTTGCACGTG | 0.974
CGTCGGGCAC | 1.11
ATATAGCCAC | 1.05
TGGGACTGCC | 1.15
CTATCGGCTG | 1.05
GGGGTAAGCC | 1.03
ATCGTGAGGT | 1.04
TGTTGAATGA | 0.959
TGCCGTACCC | 1.03
AGATCGTAGT | 1.01
AGACCGGAAA | 1.04
CGACAGATTG | 1.04
TGTTGACGTG | 0.989
TTGGAACAAT | 2.5
AGCAGGTGAG | 1.29
GGCTGGGCTC | 1.03
ATTTGTAAT | 1.02
AGCTCCCCGC | 1.35
GGTGTTTAGT | 1.08
TAAGTCACGA | 1.08

Sequence | switch fluorescence ratio
AATTGGATAC | 1.04
TGGTAGTATA | 0.995
TGACATCCCT | 1.04
ACACGGGCCC | 1.01
GGTGCAAGT | 0.995
AATGACAGCT | 0.974
GATCACTGCT | 0.968
ACTTTATAAT | 1.04
GTTGTTTTGC | 0.996
GGGAGTTGAG | 1.01
TATCAAAGTT | 0.975
TGCAAGCGCC | 1.08
GCAAAGAGGA | 1.02
ATCGCTTGTC | 1.08
CTAACCCTTA | 1.03
AGCCACATGT | 1.01
GAGTCGTTCC | 1.11
AAACGATCCG | 1.09
CTGAGACGAC | 0.987
GCCTGTAATC | 1.09
TTCAGTTGC | 1.06
TTAAGCCACA | 1.05
AGTCTAGGGG | 1.01
ATCGTACCTA | 1.17
CAGATTGCAG | 1
GAAGTACCCT | 1.01

Sequence | switch fluorescence ratio
GTGGGGGGAC | 0.988
TTAAGGAAA | 0.964
ACTGCCCTTT | 1.03
GATCAACCAG | 1.05
ACCTACACTA | 1.3
AGGTCCGCGT | 1.1
GCCGGAATTA | 1.04
TATATATGGT | 1.02
TAACCGAAGC | 2.06
CAAACGTTGG | 1.03
CATAAATAAA | 1.02
ACGGGAAGGA | 1.01
ACGTGCTGAG | 1.01
GGGGTCTCGA | 0.995
AAACACAGAT | 1.01
CGGTATAATG | 0.989
AGTACAAGTT | 0.952
ACCTCGATGC | 1.63
TCACAGTCCT | 1.06
ACGGAAATCG | 1.05
GACATTGTTT | 1.02
AGAAGCATAT | 1.1
TACCAGGCTT | 1.01
ACGAAAATAC | 2.03
GCTGCATTTT | 0.94
GGTCCAGGTA | 0.99

Sequence | switch fluorescence ratio
CCAGCTGCAG | 1.03
GAAATTTCCG | 0.984
TCAAAGTTCG | 0.984
TGCTATGAGA | 0.981
TTACCATGTC | 1.09
GCAATCATGG | 1.07
TTCTTAAGA | 1
GGGAGTTTGA | 0.979
CCTTCATATT | 2.14
TGGAGTTATG | 1.01
CAGCCATAGG | 0.976
AAACTGAG | 1.05
TTAAGCTGTA | 1.1
GCAATAAACC | 1.38
CGTCAATCCG | 1
TTGATGGGGC | 0.937
GGAGTCTCTT | 1
GGAGTGGTAA | 1.65
AGGTTGAGTA | 1
GGACATAGCG | 1.05
TTGCATAAAA | 1.02
TCGGCTTTAA | 1.04
GGCCAGGG | 1.07
TTAGTTTGAG | 1.01
CAGGTCGGTA | 0.995
GACGGAGAGG | 1.01

Sequence | switch fluorescence ratio
CCTAAGTGAA | 1.09
TCGACTATCA | 1.03
TGAAGTTTAG | 1.04
GCGATAGCCT | 0.987
TCTTACAGGT | 1.14
TCCATTGTTC | 0.996
GATCATCTGT | 1.01
GACGGTAAAT | 1.17
CAGGTTGCAT | 0.984
CCATCCCAGG | 4.26
GTAGACACGA | 1.01
TTTGCTTAG | 2.28
ATGTATCGAG | 1.04
ATCGGACTGG | 1
TATTTTAAGC | 1.04
GGGGCGACGA | 0.975
GCTCTTGCGC | 0.974
TTGGCAGCGT | 1.05
TTGTCACGTA | 1.03
ACGTCGAGTG | 0.996
GTAGCCCGGT | 0.973
ATGCGGGTC | 0.864
TCCGGTAAAG | 1.02
TTATCTCCAC | 1.04
AATCCGAGGG | 0.966
TACCTATGTC | 0.997

Sequence | switch fluorescence ratio
AATGGCCGTT | 0.997
TCATGACCGA | 1.04
GCCTGCTTGA | 0.977
AAGCTCAGGA | 0.968
TTATCTGCAG | 1.1
GGCCGTTCAA | 1.02
AGGAATGAG | 1.01
CTAGATCGTC | 0.994
CAAGCCGGTC | 1.06
TTTTGGGAAG | 1.03
TGCGGGAGCG | 0.988
ATTATATTTT | 0.971
TGGGCAAGG | 0.997
TAGGATAGT | 0.97
GAGTAAGTGA | 1
AGGTGCTATG | 1.01
GACGCGCAAA | 1.19
GCCGAGGTTT | 0.995
TATGCAAACT | 1.05
ATTGTGGACA | 0.973
TGGCGCTTTC | 1.07
TCCACCTCGT | 1
TCGTCGGAGA | 1
TTTAACAGAG | 1
CCTCTTACCA | 1.09
GCGACGTCCT | 1.04

Sequence | switch fluorescence ratio
GTTGGGACTC | 1.01
ATTCCATCTG | 1.01
CCGAAATTAG | 2.32
CACGTGGCTG | 0.956
ACAGGGAAGC | 1.07
TTAGGTTCA | 1.02
AGAAGGCATG | 0.99
TCGTTCATCG | 0.932
TCTTGGCCAA | 1.04
CCGCGGTTA | 1.38
GATGATTGAC | 1.04
GGCATAGGAT | 1.03
GGCCTTGAAC | 1.01
GCATAGTAAT | 1.08
GTAGTTGTTT | 0.957
TTGTGATGGT | 0.971
TGGACACCCC | 1.13
GCTTGTAAGT | 1
TATGTATACT | 0.959
